{
  "source": "PubChem BioAssay AID1508623",
  "about": "(National Center for Advancing Translational Sciences (NCATS), 2021)",
  "note": "The whole screen tested about 48,000 compounds, of which about 450 (0.94%) were called active. Another 19% or so got no clear call; they are omitted. Calls come from the whole dose curve; as a rule, active = well fitted inhibition curve with a large enough effect; inconclusive = small, poorly fitted or top-dose-only effect; inactive = no such curve, though single readings can be large or run the other way. The list shows a part of the results. Potency is the fitted concentration of half-maximal effect.",
  "data": [
    {"assay": "Primary qHTS for Identification of Small Molecule Inhibitors of Huntingtin Promoter Activity; note: nearly all actives have a fitted effect of over 50% in size", "settings": "HEK293 HTT promoter firefly luciferase reporter (activity 0% = vehicle and -100% = no light), 24 h; series mostly up to 57.5 µM; activity change, negative = inhibition: at the top concentration", "how_it_was_run": "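Quantitative HTS used concentration series of up to 57.5 uM final on HEK293 luciferase reporter cells, 24 h at 37 degrees C. Readout was Dual-Glo firefly luminescence.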", "values": [
      {"smiles": "Clc1cccc(C(c2ccc3nc[nH]c3c2)n2ccnc2)c1", "note": "(stereo unspecified)", "activity change, negative = inhibition": "inactive: -6.09%"},
      {"smiles": "CC(C)(C)c1nc2c3cc[nH]c(=O)c3c3cc(F)ccc3c2[nH]1", "activity change, negative = inhibition": "inactive: -3.07%"},
      {"smiles": "CCOC(=O)CNC(=O)N1[C@H](c2cccs2)[C@@H](C)C(=O)[C@@H](C)[C@@H]1c1cccs1", "activity change, negative = inhibition": "inactive: -12.5%"},
      {"smiles": "CCOc1ccc(N2CC(NC(=O)C3CCCCC3)CC2=O)cc1", "note": "(stereo unspecified)", "activity change, negative = inhibition": "inactive: -2.11%"},
      {"smiles": "CC(C)NCC(O)c1ccc2ccccc2c1", "note": "(stereo unspecified)", "activity change, negative = inhibition": "inactive: 2.01%"},
      {"smiles": "COc1cc(NC(=O)c2nc3nc(C)cc(C(F)F)n3n2)c(OC)cc1Cl", "activity change, negative = inhibition": "inactive: -5.54%"},
      {"smiles": "Cc1ccc(CNC(=O)c2ccc(CN3CC(=O)N4CCCCC4C3=O)cc2)cc1", "note": "(stereo unspecified)", "activity change, negative = inhibition": "inactive: -19.2%"},
      {"smiles": "CCc1nnc(NC(=O)c2nc(SCc3ccccc3F)ncc2Cl)s1", "activity change, negative = inhibition": "inactive: -21%"},
      {"smiles": "COc1ccc(S(=O)(=O)N2CCN(c3cccc(C)c3C)CC2)c2ccccc12", "activity change, negative = inhibition": "inactive: -2.55%"},
      {"smiles": "COc1ccc2c(c1)c(=O)c(C(=O)c1ccc(F)cc1)cn2CC(=O)Nc1ccc2c(c1)OCO2", "activity change, negative = inhibition": "inactive: -9.02%"},
      {"smiles": "Cc1ccc(NC(=O)C2CCN(c3nnc(C)c4c(C)n(-c5ccccc5)nc34)CC2)c(Cl)c1", "activity change, negative = inhibition": "inactive: -15.1%"},
      {"smiles": "CC(C)CCNC(=O)Cn1c(-c2cccs2)cc2cc(F)ccc21", "activity change, negative = inhibition": "inactive: -21.9%"},
      {"smiles": "Cc1cc(Br)ccc1NC(=O)c1sc2nc3n(c(=O)c2c1C)CCCC3", "activity change, negative = inhibition": "inactive: 22.3%"},
      {"smiles": "COc1ccc(Cl)cc1C(=O)Nc1nnc2n1CCS2", "activity change, negative = inhibition": "inactive: -2.23%"},
      {"smiles": "C=Cc1ccc(Cn2c(=O)n(-c3cccc(Cl)c3)c(=O)c3c4c(sc32)CN(C(C)=O)CC4)cc1", "activity change, negative = inhibition": "inactive: -36.1%"},
      {"smiles": "COCCCNC(=O)CCn1c(=O)c2ccccc2n(CC(=O)Nc2cc(Cl)ccc2OC)c1=O", "activity change, negative = inhibition": "inactive: -5.3%"},
      {"smiles": "CN1C(C(=O)Nc2cccc(O)c2)=CC(c2ccco2)=NS1(=O)=O", "activity change, negative = inhibition": "inactive: -24.8%"},
      {"smiles": "Cc1cccc(N2CCn3c2nc2c3c(=O)n(C/C=C/c3ccccc3)c(=O)n2C)c1", "activity change, negative = inhibition": "inactive: -6.35%"},
      {"smiles": "CCCCN(CC)c1nc(-c2ccccc2F)nc2ccccc12", "activity change, negative = inhibition": "inactive: -9.09%"},
      {"smiles": "Cc1cc(C)c(NC(=O)Cn2nnc(S(=O)(=O)c3ccc(C)c(C)c3)c2N)c(C)c1", "activity change, negative = inhibition": "inactive: -21.3%"},
      {"smiles": "CC(=O)c1ccc(NC(=O)C2CCN(c3nnc(C)c4c(C)n(-c5ccccc5)nc34)CC2)cc1", "activity change, negative = inhibition": "inactive: -9.28%"},
      {"smiles": "Cc1ccc(-c2cc(C(=O)N3CCN(S(=O)(=O)c4ccc(Br)cc4)CC3)[nH]n2)c(C)c1", "activity change, negative = inhibition": "inactive: -4.23%"},
      {"smiles": "CC(C)OCCCn1c(=O)c2ccccc2n2c(-c3ccccc3)nnc12", "activity change, negative = inhibition": "inactive: 0.39%"},
      {"smiles": "O=C(Cc1ccccc1)Nc1sc2c(c1C(=O)Nc1cccc(Cl)c1)CCCCC2", "activity change, negative = inhibition": "inactive: -5.62%"},
      {"smiles": "CCc1nn2c(=O)cc(COC(=O)Cc3ccccc3)nc2s1", "activity change, negative = inhibition": "inactive: -4.12%"},
      {"smiles": "Cc1ccc(S(=O)(=O)c2cn(Cc3ccccc3)c3cc(N4CCCCC4)c(F)cc3c2=O)cc1", "activity change, negative = inhibition": "inactive: 9.83%"},
      {"smiles": "CC(C)CCOc1ccc(Cn2c(=O)oc3ccccc32)cc1", "activity change, negative = inhibition": "inactive: 10.2%"},
      {"smiles": "COc1ccc(NC(=O)CSC2=Nc3ccccc3C3=NC(CC(=O)NCCc4ccccc4)C(=O)N23)cc1", "note": "(stereo unspecified)", "activity change, negative = inhibition": "inactive: 3.9%"},
      {"smiles": "O=C(NCc1ccco1)c1ccc(Cn2c(SCc3ccccc3)nc3cccnc32)cc1", "activity change, negative = inhibition": "inactive: -9.27%"},
      {"smiles": "COc1cc(OC)c(NC(=O)CCS(=O)(=O)c2ccc3c(c2)oc(=O)n3C)cc1Cl", "activity change, negative = inhibition": "inactive: -2.22% [at 11.5 µM]"},
      {"smiles": "CCc1ccc(CNC(=O)C2COc3ccc(OC)cc3C2)cc1", "note": "(stereo unspecified)", "activity change, negative = inhibition": "inactive: -14%"},
      {"smiles": "CN(Cc1ccccc1)C(=O)CSc1nnc(-c2cccc(Cl)c2)o1", "activity change, negative = inhibition": "inactive: 1.2%"},
      {"smiles": "CCOC(=O)c1c(C)sc(-c2c(-c3ccccc3)[nH]c3[nH]c(=O)[nH]c(=O)c23)c1O", "activity change, negative = inhibition": "inactive: -9.75%"},
      {"smiles": "COc1ccc(-c2noc(-c3ccc(N4CCOCC4)c([N+](=O)[O-])c3)n2)cc1", "activity change, negative = inhibition": "inactive: -9.1%"},
      {"smiles": "CC1=C(C(=O)Nc2ccccc2C)C(c2cccs2)n2nc(SCc3ccccc3)nc2N1", "note": "(stereo unspecified)", "activity change, negative = inhibition": "inactive: -21.1%"},
      {"smiles": "O=C(Cn1ncc2c(Cl)cccc21)NCc1cccc(Cl)c1", "activity change, negative = inhibition": "inactive: -14.2%"},
      {"smiles": "CCc1ccc(-n2nc(CO)c(C(=O)NCCOC)n2)cc1", "activity change, negative = inhibition": "inactive: 28.9%"},
      {"smiles": "Cc1scc(CN2CCN(c3ccccc3F)CC2)c1C", "activity change, negative = inhibition": "inactive: 0.721%"},
      {"smiles": "Cc1ccc(CN(C(=O)COc2ccccc2Cl)c2ccccn2)o1", "activity change, negative = inhibition": "inactive: 38.4%"},
      {"smiles": "Cc1cccc(NC(=O)Cn2c(=O)n(Cc3ccc4c(c3)OCO4)c(=O)c3oc4ccccc4c32)c1C", "activity change, negative = inhibition": "inactive: -8.04%"},
      {"smiles": "Cc1ccc(CNS(=O)(=O)c2ccc(C(=O)N(C)C)s2)cc1", "activity change, negative = inhibition": "inactive: -18.9%"},
      {"smiles": "CC(C)(C)C1CCc2c(sc(NC(=O)C3c4ccccc4Oc4ccccc43)c2C(N)=O)C1", "note": "(stereo unspecified)", "activity change, negative = inhibition": "inactive: -13.7%"},
      {"smiles": "CCn1cc(S(=O)(=O)c2cc(C)cc(C)c2)c(=O)c2cc(F)c(N3CCCCC3)cc21", "activity change, negative = inhibition": "inactive: -20.1%"},
      {"smiles": "CCC(=O)N1c2ccc(S(=O)(=O)CCC(=O)NCc3ccccc3OC)cc2CC1C", "note": "(stereo unspecified)", "activity change, negative = inhibition": "inactive: 6.54%"},
      {"smiles": "CC(=O)N1CCc2cc(Br)cc(S(=O)(=O)N3CCC(C(=O)Nc4cccc(C)c4C)CC3)c21", "activity change, negative = inhibition": "inactive: 7.54%"},
      {"smiles": "COC(=O)c1nnn(CC(=O)NC(=O)Nc2ccc(F)cc2)c1C(=O)OC", "activity change, negative = inhibition": "inactive: -11.2%"},
      {"smiles": "O=C(Nc1ccc(S(=O)(=O)N2CCC(c3nc4ccccc4s3)CC2)cc1)c1ccccc1", "activity change, negative = inhibition": "inactive: -0.968%"},
      {"smiles": "CC1CCCCN1Cc1c(O)ccc2c(=O)c(-c3ccccc3Cl)c(C(F)(F)F)oc12", "note": "(stereo unspecified)", "activity change, negative = inhibition": "inactive: -4.38%"},
      {"smiles": "CCCCn1c(CNC(=O)C23CC4CC(CC(C4)C2)C3)nnc1SCC(=O)Nc1ccc(C)cc1", "activity change, negative = inhibition": "inactive: -31.7%"},
      {"smiles": "COCCSc1nc2c([nH]c3ccccc32)c(=O)n1-c1ccc(OC)c(OC)c1", "activity change, negative = inhibition": "inactive: -22.5%"},
      {"smiles": "Cc1ccc(C2CC(=O)Nc3cc4c(cc32)OCCO4)cc1Br", "note": "(stereo unspecified)", "Potency": "active: 25.1 µM"},
      {"smiles": "CCOc1ccc(CCNC(=O)c2cc(=O)[nH]c3ccc(S(=O)(=O)N4CCCCC4C)cc23)cc1OCC", "note": "(stereo unspecified)", "activity change, negative = inhibition": "inactive: -25.7%"},
      {"smiles": "COCCNC(=O)Cn1ccc2cc(S(=O)(=O)N3CCCCCC3)ccc21", "activity change, negative = inhibition": "inactive: -6.81%"},
      {"smiles": "CCn1c(=O)c2c(nc3n2CCN3c2ccc(OC)cc2)n(C)c1=O", "activity change, negative = inhibition": "inactive: 4.42%"},
      {"smiles": "COc1ccc(CNC(=O)CCc2c(C)nc3c(c(C)nn3-c3ccccc3)c2C)cc1", "activity change, negative = inhibition": "inactive: -1.27%"},
      {"smiles": "CCOC(=O)c1c(C)n(-c2ccc(OC)cc2)c2ccc(OC(=O)COc3ccccc3)cc12", "activity change, negative = inhibition": "inactive: -31.2%"},
      {"smiles": "CN1C[C@H]2c3ccccc3Oc3ccc(Cl)cc3[C@@H]2C1", "activity change, negative = inhibition": "inactive"},
      {"smiles": "c1ccc([C@H]2CN3CCSC3=N2)cc1", "activity change, negative = inhibition": "inactive"},
      {"smiles": "CC(C)c1nnc(N2C(=O)c3oc4ccccc4c(=O)c3C2c2ccccc2F)s1", "note": "(stereo unspecified)", "activity change, negative = inhibition": "inactive: -10.5% [at 11.5 µM]"},
      {"smiles": "CN(C)CC/C=C1\\c2ccccc2Sc2ccc(Cl)cc21", "activity change, negative = inhibition": "inactive: -17%"},
      {"smiles": "Cc1cc2c(cc1S(=O)(=O)Nc1cccc(C#N)c1)OCC(=O)N2", "activity change, negative = inhibition": "inactive: 4.37%"}
    ]}
  ]
}
